AUC and IC50 data for 49 cell lines are collected here from the supplement of paper PMC4967469.

Broadly, the IC50 is the concentration that inhibits the measured activity by half.

Compound in this experiment: N#CC[C@H](C1CCCC1)n1cc(-c2ncnc3[nH]ccc23)cn1 [Ruxolitinib]
Nature of the experiment: Viability of human cancer cell lines after 72 h of drug (GDSC screen). The procedure: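 Human cancer cell lines in 384-well plates, medium with 10% serum, drug for 72 h over a 256-fold dose range (nine 2-fold or five 4-fold steps up to the top dose). Adherent lines were fixed and stained with the nucleic acid dye Syto60, suspension lines read with resazurin; signal relative to control wells, capped at 0 and 100%. One two-parameter sigmoid per drug and line, fitted in a mixed model over all curves with the slope shared within a line.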

A lower IC50 marks a more sensitive line; fits outside the tested doses are given as limits. AUC is the area under the same curve over the 256-fold range up to the top dose, as a fraction; values near 1 show little effect. Where only a bound is given, the exact number is not on record here.

With “CAL-33 (head and neck, adherent, top dose 5.24 µM)”, the AUC is 0.984 and the half-inhibitory concentration (IC50) is more than 5.24 µM.
The corresponding values for “EW-7 (Ewing sarcoma, semi-adherent, top dose 5.24 µM)” are 0.99 and more than 5.24 µM.
The corresponding values for “NCI-H1355 (lung adenocarcinoma, adherent, top dose 5.24 µM)” are 0.974 and more than 5.24 µM.
On the same counts, the results for “MHH-PREB-1 (B-cell leukaemia, suspension, top dose 5.24 µM)” are 0.987 and more than 5.24 µM.
Take “CTB-1 (B-cell lymphoma, suspension, top dose 5.24 µM)”: the AUC amounted to 0.962 and the 50% inhibitory concentration (IC50) was more than 5.24 µM.
On the same counts, the results for “H2804 (mesothelioma, adherent, top dose 5.24 µM)” are 0.966 and more than 5.24 µM.
The corresponding values for “A4-Fuk (B-cell lymphoma, suspension, top dose 5.24 µM)” are 0.984 and more than 5.24 µM.
On the same counts, the results for “OVKATE (ovary, adherent, top dose 5.24 µM)” are 0.976 and more than 5.24 µM.
On to “NCI-H1915 (large cell lung carcinoma, adherent, top dose 5.24 µM)”, for which the AUC came out at 0.984 and the IC50 was more than 5.24 µM.
Consider “SBC-5 (small cell lung carcinoma, adherent, top dose 5.24 µM)”, for which the AUC came out at 0.992 and the IC50 is more than 5.24 µM.
On the same counts, the results for “SCC90 (head and neck, adherent, top dose 5.24 µM)” are 0.925 and more than 5.24 µM.
On the same counts, the results for “Capan-2 (pancreas, adherent, top dose 5.24 µM)” are 0.984 and more than 5.24 µM.
Regarding “L-428 (Hodgkin lymphoma, suspension, top dose 5.24 µM)”, the AUC was 0.98 and the IC50 is more than 5.24 µM.
“HCC38 (breast, adherent, top dose 5.24 µM)”: the AUC worked out at 0.984 and the half-maximal inhibitory concentration (IC50) was more than 5.24 µM.
On the same counts, the results for “GCIY (stomach, adherent, top dose 5.24 µM)” are 0.984 and more than 5.24 µM.
The corresponding values for “HOP-62 (lung adenocarcinoma, adherent, top dose 5.24 µM)” are 0.972 and more than 5.24 µM.
Regarding “NCI-SNU-1 (stomach, suspension, top dose 5.24 µM)”, the AUC was determined as 0.981 and the concentration for half-maximal inhibition (IC50) was more than 5.24 µM.
“WM35 (melanoma, adherent, top dose 5.24 µM)”: the AUC worked out at 0.982 and the concentration for half-maximal inhibition (IC50) was more than 5.24 µM.
On the same counts, the results for “IA-LM (large cell lung carcinoma, adherent, top dose 5.24 µM)” are 0.981 and more than 5.24 µM.
On the same counts, the results for “JVM-2 (lymphoid neoplasm, suspension, top dose 5.24 µM)” are 0.98 and more than 5.24 µM.
The corresponding values for “LB771-HNC (head and neck, adherent, top dose 5.24 µM)” are 0.981 and more than 5.24 µM.
Turning to “SJSA-1 (bone, adherent, top dose 5.24 µM)”, the AUC came to 0.983 and the half-maximal inhibitory concentration (IC50) was more than 5.24 µM.
The corresponding values for “NCI-H2030 (lung adenocarcinoma, adherent, top dose 5.24 µM)” are 0.971 and more than 5.24 µM.
On the same counts, the results for “STS-0421 (soft tissue, adherent, top dose 5.24 µM)” are 0.958 and more than 5.24 µM.
“RS4-11 (leukaemia, suspension, top dose 5.24 µM)”: the AUC was determined as 0.988 and the half-maximal inhibitory concentration (IC50) was more than 5.24 µM.
The corresponding values for “NCI-SNU-5 (stomach, suspension, top dose 5.24 µM)” are 0.988 and more than 5.24 µM.
On the same counts, the results for “ESO26 (oesophagus, adherent, top dose 5.24 µM)” are 0.981 and more than 5.24 µM.
On the same counts, the results for “EFO-21 (ovary, adherent, top dose 5.24 µM)” are 0.975 and more than 5.24 µM.
With “NCI-H520 (lung squamous cell carcinoma, adherent, top dose 5.24 µM)”, the AUC came to 0.986 and the IC50 was more than 5.24 µM.
On the same counts, the results for “SU-DHL-4 (B-cell lymphoma, suspension, top dose 5.24 µM)” are 0.997 and more than 5.24 µM.
On the same counts, the results for “KY821 (leukaemia, suspension, top dose 5.24 µM)” are 0.991 and more than 5.24 µM.
As to “NCI-H1304 (small cell lung carcinoma, suspension, top dose 5.24 µM)”, the AUC stood at 0.963 and the IC50 is more than 5.24 µM.
On the same counts, the results for “NCI-H661 (large cell lung carcinoma, adherent, top dose 5.24 µM)” are 0.978 and more than 5.24 µM.
The corresponding values for “SJRH30 (rhabdomyosarcoma, adherent, top dose 5.24 µM)” are 0.985 and more than 5.24 µM.
As to “ROS-50 (B-cell leukaemia, suspension, top dose 5.24 µM)”, the AUC came out at 0.972 and the half-inhibitory concentration (IC50) was more than 5.24 µM.
The corresponding values for “JHH-4 (liver, adherent, top dose 5.24 µM)” are 0.972 and more than 5.24 µM.
On the same counts, the results for “C2BBe1 (large intestine, adherent, top dose 5.24 µM)” are 0.986 and more than 5.24 µM.
The corresponding values for “DOV13 (ovary, adherent, top dose 5.24 µM)” are 0.981 and more than 5.24 µM.
As for “PANC-10-05 (pancreas, adherent, top dose 5.24 µM)”, the AUC came to 0.981 and the half-inhibitory concentration (IC50) was more than 5.24 µM.
The corresponding values for “SUP-HD1 (Hodgkin lymphoma, suspension, top dose 5.24 µM)” are 0.649 and 0.827 µM.
On to “CAL-39 (cervix, adherent, top dose 5.24 µM)”, for which the AUC is 0.984 and the IC50 is more than 5.24 µM.
The corresponding values for “SCH (stomach, adherent, top dose 5.24 µM)” are 0.988 and more than 5.24 µM.
On the same counts, the results for “EFO-27 (ovary, adherent, top dose 5.24 µM)” are 0.98 and more than 5.24 µM.
The corresponding values for “ME-180 (cervix, adherent, top dose 5.24 µM)” are 0.983 and more than 5.24 µM.
Regarding “SK-N-DZ (neuroblastoma, adherent, top dose 5.24 µM)”, the AUC worked out at 0.988 and the IC50 was more than 5.24 µM.
Regarding “H2373 (mesothelioma, adherent, top dose 5.24 µM)”, the AUC was found to be 0.98 and the IC50 is more than 5.24 µM.
On the same counts, the results for “Saos-2 (osteosarcoma, adherent, top dose 5.24 µM)” are 0.981 and more than 5.24 µM.
For the cell line “Hep 3B2_1-7 (liver, adherent, top dose 5.24 µM)”, the AUC is 0.986 and the IC50 was more than 5.24 µM.
On the same counts, the results for H4 (glioma, adherent, top dose 5.24 µM) are 0.986 and more than 5.24 µM.
